# Inconclusive results and toxic doses are left out. A number of entries come with more than one value. Only these are listed. The source may hold further records. Results that share an entry differ for a reason that is not stated; some may be repeats, others may stem from another dose, organism or construct than stated.
# Test system: L1210 leukemia ip in BDF1 mice, survival T/C
# Experiment: NCI In Vivo Anticancer Drug Screen. Data for tumor model L1210 Leukemia (intraperitoneal) in B6D2F1 (BDF1) mice
# Details: endpoint: mean survival time, higher = longer survival
SMILES,"T/C (dose: 30.0 mg/kg/injection, schedule: Q01DX009 (ip), vehicle: carboxymethylcellulose (CMC))","T/C (dose: 33.0 mg/kg/injection, schedule: Q01DX001 (ip), vehicle: saline)","T/C (dose: 50.0 mg/kg/injection, schedule: Q01DX001 (ip), vehicle: saline)","T/C (dose: 75.0 mg/kg/injection, schedule: Q01DX001 (ip), vehicle: saline)"
COc1cc(C=Nc2ccc(-c3csc(-c4ccccc4)n3)c(Cl)c2)ccc1N(CCCl)CCCl,123 % of control and 156 % of control,–,–,–
CC1(C)CN1P(=O)(N1CC1(C)C)N1CC1(C)C (centres undefined),–,121 % of control and 151 % of control,123 % of control and 150 % of control,119 % of control and 170 % of control

# Reference: PubChem BioAssay AID248 (DTP/NCI, 2004)
